{"source": "the supplement of paper PMC8728848", "assay_in_all_cases": "glycan array binding signal (z-score within array); higher = stronger binding", "conditions_in_all_cases": "glycan notation: IUPAC condensed, linker removed", "key": {"[1]": {"biological_target": "Man(a1-3)[Man(a1-6)]Man(a1-6)[Man(a1-3)]Man", "outline": "(§1)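 Arrays were curated from the Consortium for Functional Glycomics database, 3228 in total, and kept only where the protein sequence was available. Binding is expressed as a within-array Z-score. This score was averaged across arrays of the same protein sequence at different concentrations or buffers and across linkers, and negative values can be read as non-binding.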"}, "[2]": {"biological_target": "Man(a1-3)[Man(a1-6)]Man(a1-6)[Man(a1-3)]Man(b1-4)GlcNAc(b1-4)GlcNAc", "outline": "as §1"}, "[3]": {"biological_target": "Man(a1-3)[Man(a1-6)]Man(b1-4)GlcNAc(b1-4)GlcNAc", "outline": "as §1"}, "Man(a1-6)Man": {"biological_target": "Man(a1-6)Man", "outline": "as §1"}, "Man(b1-4)GlcNAc": {"biological_target": "Man(b1-4)GlcNAc", "outline": "as §1"}, "Neu5Ac(a2-3)Gal": {"biological_target": "Neu5Ac(a2-3)Gal", "outline": "as §1"}, "[4]": {"biological_target": "Neu5Ac(a2-3)Gal(b1-3)GalNAc", "outline": "as §1"}, "[5]": {"biological_target": "Neu5Ac(a2-3)Gal(b1-3)GalNAc(b1-3)Gal(a1-4)Gal(b1-4)Glc", "outline": "as §1"}, "[6]": {"biological_target": "Neu5Ac(a2-3)Gal(b1-3)GalNAc(b1-3)Gal(b1-4)GlcNAc", "outline": "as §1"}, "[7]": {"biological_target": "Neu5Ac(a2-3)Gal(b1-3)GalNAc(b1-4)[Neu5Ac(a2-3)]Gal(b1-4)Glc", "outline": "as §1"}, "[8]": {"biological_target": "Neu5Ac(a2-3)Gal(b1-3)GalNAc6S", "outline": "as §1"}, "[9]": {"biological_target": "Neu5Ac(a2-3)Gal(b1-3)GlcNAc", "outline": "as §1"}, "[10]": {"biological_target": "Neu5Ac(a2-3)Gal(b1-3)GlcNAc(b1-3)Gal(b1-3)GlcNAc", "outline": "as §1"}, "[11]": {"biological_target": "Neu5Ac(a2-3)Gal(b1-3)GlcNAc6S", "outline": "as §1"}, "[12]": {"biological_target": "Neu5Ac(a2-3)Gal(b1-3)[Fuc(a1-4)]GlcNAc", "outline": "as §1"}, "[13]": {"biological_target": "Neu5Ac(a2-3)Gal(b1-3)[Fuc(a1-4)]GlcNAc(b1-3)Gal(b1-4)[Fuc(a1-3)]GlcNAc", "outline": "as §1"}, "[14]": {"biological_target": "Neu5Ac(a2-3)Gal(b1-3)[Neu5Ac(a2-3)Gal(b1-4)]GlcNAc", "outline": "as §1"}, "[15]": {"biological_target": "Neu5Ac(a2-3)Gal(b1-3)[Neu5Ac(a2-6)]GalNAc", "outline": "as §1"}, "Neu5Ac(a2-3)Gal(b1-4)Glc": {"biological_target": "Neu5Ac(a2-3)Gal(b1-4)Glc", "outline": "as §1"}, "[16]": {"biological_target": "Neu5Ac(a2-3)Gal(b1-4)GlcNAc", "outline": "as §1"}, "[17]": {"biological_target": "Neu5Ac(a2-3)Gal(b1-4)GlcNAc(b1-2)Man(a1-3)[GlcNAc(b1-2)Man(b1-4)GlcNAc(b1-2)Man(a1-6)]Man(b1-4)GlcNAc(b1-4)GlcNAc", "outline": "as §1"}, "[18]": {"biological_target": "Neu5Ac(a2-3)Gal(b1-4)GlcNAc(b1-2)Man(a1-3)[Neu5Ac(a2-6)Gal(b1-4)GlcNAc(b1-2)Man(a1-6)]Man(b1-4)GlcNAc(b1-4)GlcNAc", "outline": "as §1"}, "[19]": {"biological_target": "Neu5Ac(a2-3)Gal(b1-4)GlcNAc(b1-3)Gal(b1-3)GlcNAc", "outline": "as §1"}, "[20]": {"biological_target": "Neu5Ac(a2-3)Gal(b1-4)GlcNAc(b1-3)Gal(b1-4)GlcNAc", "outline": "as §1"}, "[21]": {"biological_target": "Neu5Ac(a2-3)Gal(b1-4)GlcNAc(b1-3)Gal(b1-4)GlcNAc(b1-3)Gal(b1-4)GlcNAc", "outline": "as §1"}, "[22]": {"biological_target": "Neu5Ac(a2-3)Gal(b1-4)GlcNAc(b1-3)Gal(b1-4)[Fuc(a1-3)]GlcNAc", "outline": "as §1"}, "[23]": {"biological_target": "Neu5Ac(a2-3)Gal(b1-4)GlcNAc(b1-6)[Gal(b1-3)]GalNAc", "outline": "as §1"}, "[24]": {"biological_target": "Neu5Ac(a2-3)Gal(b1-4)GlcNAc(b1-6)[Neu5Ac(a2-3)Gal(b1-3)]GalNAc", "outline": "as §1"}, "[25]": {"biological_target": "Neu5Ac(a2-3)Gal(b1-4)GlcNAc6S", "outline": "as §1"}, "[26]": {"biological_target": "Neu5Ac(a2-3)Gal(b1-4)[Fuc(a1-3)]GlcNAc", "outline": "as §1"}, "[27]": {"biological_target": "Neu5Ac(a2-3)Gal(b1-4)[Fuc(a1-3)]GlcNAc(b1-3)Gal", "outline": "as §1"}, "[28]": {"biological_target": "Neu5Ac(a2-3)Gal(b1-4)[Fuc(a1-3)]GlcNAc(b1-3)Gal(b1-4)GlcNAc", "outline": "as §1"}, "[29]": {"biological_target": "Neu5Ac(a2-3)Gal(b1-4)[Fuc(a1-3)]GlcNAc(b1-3)Gal(b1-4)[Fuc(a1-3)]GlcNAc(b1-3)Gal(b1-4)[Fuc(a1-3)]GlcNAc", "outline": "as §1"}, "[30]": {"biological_target": "Neu5Ac(a2-3)Gal(b1-4)[Fuc(a1-3)]GlcNAc(b1-6)[Gal(b1-3)]GalNAc", "outline": "as §1"}, "[31]": {"biological_target": "Neu5Ac(a2-3)Gal(b1-4)[Fuc(a1-3)]GlcNAc6S", "outline": "as §1"}, "[32]": {"biological_target": "Neu5Ac(a2-3)Gal6S(b1-4)GlcNAc", "outline": "as §1"}, "[33]": {"biological_target": "Neu5Ac(a2-3)Gal6S(b1-4)[Fuc(a1-3)]GlcNAc", "outline": "as §1"}, "Neu5Ac(a2-3)GalNAc": {"biological_target": "Neu5Ac(a2-3)GalNAc", "outline": "as §1"}, "[34]": {"biological_target": "Neu5Ac(a2-3)GalNAc(b1-4)GlcNAc", "outline": "as §1"}, "[35]": {"biological_target": "Neu5Ac(a2-3)[GalNAc(b1-4)]Gal(b1-4)Glc", "outline": "as §1"}, "[36]": {"biological_target": "Neu5Ac(a2-3)[GalNAc(b1-4)]Gal(b1-4)GlcNAc", "outline": "as §1"}, "[37]": {"biological_target": "Neu5Ac(a2-3)[Neu5Ac(a2-6)]GalNAc", "outline": "as §1"}, "Neu5Ac(a2-6)Gal": {"biological_target": "Neu5Ac(a2-6)Gal", "outline": "as §1"}, "Neu5Ac(a2-6)Gal(b1-4)Glc": {"biological_target": "Neu5Ac(a2-6)Gal(b1-4)Glc", "outline": "as §1"}, "[38]": {"biological_target": "Neu5Ac(a2-6)Gal(b1-4)GlcNAc", "outline": "as §1"}}, "note": "The list shows a part of the results.", "data": [{"binder": "Glycodelin A (Homo sapiens), P09466 (protein) MLCLLLTLGVALVCGVPAMDIPQTKQDLELPKLAGTWHSMAMATNNISLMATLKAPLRVHITSLLPTPEDNLEIVLHRWENNSCVEKKVLGEKTENPKKFKINYTVANEATLLDTDYDNFLFLCLQDTTTPIQSMMCQYLARVLVEDDEIMQGFIRAFRPLPRHLWYLLDLKQMEEPCRF", "values": [{"measurement": "glycan array binding signal (z-score)", "setting": "[1]", "value": -0.048}, {"measurement": "glycan array binding signal (z-score)", "setting": "[2]", "value": -0.154}, {"measurement": "glycan array binding signal (z-score)", "setting": "[3]", "value": -0.406}, {"measurement": "glycan array binding signal (z-score)", "setting": "Man(a1-6)Man", "value": -0.343}, {"measurement": "glycan array binding signal (z-score)", "setting": "Man(b1-4)GlcNAc", "value": -0.404}, {"measurement": "glycan array binding signal (z-score)", "setting": "Neu5Ac(a2-3)Gal", "value": -0.131}, {"measurement": "glycan array binding signal (z-score)", "setting": "[4]", "value": 0.641}, {"measurement": "glycan array binding signal (z-score)", "setting": "[5]", "value": -0.441}, {"measurement": "glycan array binding signal (z-score)", "setting": "[6]", "value": -0.477}, {"measurement": "glycan array binding signal (z-score)", "setting": "[7]", "value": -0.406}, {"measurement": "glycan array binding signal (z-score)", "setting": "[8]", "value": -0.419}, {"measurement": "glycan array binding signal (z-score)", "setting": "[9]", "value": -0.399}, {"measurement": "glycan array binding signal (z-score)", "setting": "[10]", "value": -0.434}, {"measurement": "glycan array binding signal (z-score)", "setting": "[11]", "value": 1.21}, {"measurement": "glycan array binding signal (z-score)", "setting": "[12]", "value": -0.43}, {"measurement": "glycan array binding signal (z-score)", "setting": "[13]", "value": -0.46}, {"measurement": "glycan array binding signal (z-score)", "setting": "[14]", "value": -0.439}, {"measurement": "glycan array binding signal (z-score)", "setting": "[15]", "value": 1.76}, {"measurement": "glycan array binding signal (z-score)", "setting": "Neu5Ac(a2-3)Gal(b1-4)Glc", "value": -0.347}, {"measurement": "glycan array binding signal (z-score)", "setting": "[16]", "value": -0.372}, {"measurement": "glycan array binding signal (z-score)", "setting": "[17]", "value": -0.448}, {"measurement": "glycan array binding signal (z-score)", "setting": "[18]", "value": -0.381}, {"measurement": "glycan array binding signal (z-score)", "setting": "[19]", "value": -0.449}, {"measurement": "glycan array binding signal (z-score)", "setting": "[20]", "value": -0.355}, {"measurement": "glycan array binding signal (z-score)", "setting": "[21]", "value": -0.385}, {"measurement": "glycan array binding signal (z-score)", "setting": "[22]", "value": -0.491}, {"measurement": "glycan array binding signal (z-score)", "setting": "[23]", "value": 0.897}, {"measurement": "glycan array binding signal (z-score)", "setting": "[24]", "value": -0.47}, {"measurement": "glycan array binding signal (z-score)", "setting": "[25]", "value": -0.489}, {"measurement": "glycan array binding signal (z-score)", "setting": "[26]", "value": 1.59}, {"measurement": "glycan array binding signal (z-score)", "setting": "[27]", "value": -0.441}, {"measurement": "glycan array binding signal (z-score)", "setting": "[28]", "value": -0.47}, {"measurement": "glycan array binding signal (z-score)", "setting": "[29]", "value": -0.374}, {"measurement": "glycan array binding signal (z-score)", "setting": "[30]", "value": 2.67}, {"measurement": "glycan array binding signal (z-score)", "setting": "[31]", "value": -0.384}, {"measurement": "glycan array binding signal (z-score)", "setting": "[32]", "value": -0.381}, {"measurement": "glycan array binding signal (z-score)", "setting": "[33]", "value": -0.448}, {"measurement": "glycan array binding signal (z-score)", "setting": "Neu5Ac(a2-3)GalNAc", "value": -0.477}, {"measurement": "glycan array binding signal (z-score)", "setting": "[34]", "value": 1.8}, {"measurement": "glycan array binding signal (z-score)", "setting": "[35]", "value": -0.29}, {"measurement": "glycan array binding signal (z-score)", "setting": "[36]", "value": -0.435}, {"measurement": "glycan array binding signal (z-score)", "setting": "[37]", "value": -0.3}, {"measurement": "glycan array binding signal (z-score)", "setting": "Neu5Ac(a2-6)Gal", "value": -0.479}, {"measurement": "glycan array binding signal (z-score)", "setting": "Neu5Ac(a2-6)Gal(b1-4)Glc", "value": -0.437}, {"measurement": "glycan array binding signal (z-score)", "setting": "[38]", "value": 0.199}]}]}
